In PMC11431137, “[^68Ga]Ga-DOTAGA-Glu(FAPi)2 Shows Enhanced Tumor Uptake and Theranostic Potential in Preclinical PET Imaging” (Diagnostics, 2024):
Several values for one entry are separate records, joined by “and”; a condition that tells them apart may be missing. Equal values may be shown once. Further values from the same series stand in other lists.

Tested on: endogenously FAP-expressing xenografted mouse model, U87MG
Test: In vivo PET/CT imaging, organ distribution in U87MG xenografted mice
Source text: Six-week-old female NMRI nude mice were purchased (Janvier, Le Genest-Saint-Isle, France) and housed in groups of 4–8 mice in individually ventilated cages under regular lighting conditions. They were fed a standard pathogen-free pellet diet and provided water ad libitum. All animal experiments were approved by The Animal Experiments Inspectorate in Denmark (2021-15-0201-01041). The animals were acclimatized for two weeks before study initiation.
To establish a tumor model, the mice were subcutaneously inoculated on the right flank with a human xenograft glioblastoma U87MG (HTB-14, ATCC, Manassas, VA, USA). These cells were cultivated in Dulbecco’s modified Eagle’s medium (DMEM) supplemented with fetal bovine serum (FBS) and penicillin–streptomycin (Pen/Strep). Tumor growth was monitored two times weekly using calipers.
After adequate tumor establishment, the animals were injected intravenously in the tail vein with 4.49 ± 0.04 MBq [^68Ga]Ga-DOTAGA-Glu(FAPi)2 in a 100 μL phosphate buffer (0.1 M, pH 7) with 1% ethanol (v/v). PET/CT imaging (Inveon, Siemens Healthineers, Knoxville, TN, USA) was performed immediately after injection, and PET data were acquired for 3000 s. The imaging protocol included a dynamic framing setup, with five consecutive frames of 600 s each, resulting in average time intervals of 0–10, 10–20, 20–30, 30–40, and 40–50 min post-injection. During imaging, body temperature was maintained using a heated platform.
PET images were reconstructed using the 3D-OSEM/SP-MAP algorithm, and attenuation correction was performed using the co-registered CT images. The activity concentration was decay-corrected to the time of injection and quantified using Inveon Research Workplace (IRW). Regions of interest were manually drawn on CT images to delineate organs and derive volume and activity. Subsequently, the percentage of injected dose per gram (% ID/g) was calculated for tumor, blood, liver, kidney, and muscle tissues for each frame.
All graphical representations of the data were generated using Prism version 10.1.0 (1994–2023, GraphPad Software, LLC, Boston, MA, USA). The results were expressed as the mean ± standard error of the mean (SEM).

[1] = 5 min post-injection, Mean±SEM, n = 4 mice
[2] = 5 min post-injection, individual mice M1-M4
[3] = 15 min post-injection, Mean±SEM, n = 4 mice
[4] = 15 min post-injection, individual mice M1-M4
[5] = 25 min post-injection, Mean±SEM, n = 4 mice
[6] = 25 min post-injection, individual mice M1-M4
[7] = 35 min post-injection, Mean±SEM, n = 4 mice
[8] = 35 min post-injection, individual mice M1-M4
[9] = 45 min post-injection, Mean±SEM, n = 4 mice
[10] = 45 min post-injection, Mean±SEM, n = 4 mice, listed as [^68Ga]Ga-DOTAGA-Glu-(FAPi)2
[11] = 45 min post-injection, individual mice M1-M4

N#C[C@@H]1CC(F)(F)CN1C(=O)CNC(=O)c1ccnc2ccc(OCCCCNC(=O)CC[C@H](NC(=O)CCC(C(=O)O)N3CCN(CC(=O)[O-])CCN(CC(=O)[O-])CCN(CC(=O)[O-])CC3)C(=O)NCCCCOc3ccc4nccc(C(=O)NCC(=O)N5CC(F)(F)C[C@H]5C#N)c4c3)cc12.[68Ga+3] (stereo partly drawn) [[^68Ga]Ga-DOTAGA-Glu(FAPi)2]
Organ distribution, blood [1]: 5.51±0.37 %ID/g
Organ distribution, muscle [1]: 0.71±0.12 %ID/g
Organ distribution, blood [2]: 5.59 %ID/g and 6.02 %ID/g and 4.44 %ID/g
Organ distribution, muscle [2]: 1.00 %ID/g and 0.74 %ID/g and 0.65 %ID/g and 0.43 %ID/g
Organ distribution, tumor [2]: 2.48 %ID/g
Organ distribution, blood [3]: 4.67±0.22 %ID/g
Organ distribution, muscle [3]: 1.17±0.07 %ID/g
Organ distribution, blood [4]: 4.69 %ID/g and 4.95 %ID/g and 5.00 %ID/g
Organ distribution, muscle [4]: 1.34 %ID/g and 1.20 %ID/g and 1.11 %ID/g and 1.02 %ID/g
Organ distribution, tumor [4]: 3.94 %ID/g
Organ distribution, blood [5]: 4.08±0.21 %ID/g
Organ distribution, muscle [5]: 1.22±0.03 %ID/g
Organ distribution, blood [6]: 4.16 %ID/g and 3.86 %ID/g and 4.62 %ID/g
Organ distribution, muscle [6]: 1.29 %ID/g and 1.25 %ID/g and 1.16 %ID/g (2×)
Organ distribution, tumor [6]: 4.20 %ID/g
Organ distribution, blood [7]: 3.67±0.21 %ID/g
Organ distribution, muscle [7]: 1.24±0.07 %ID/g
Organ distribution, blood [8]: 3.90 %ID/g and 3.21 %ID/g and 4.13 %ID/g
Organ distribution, muscle [8]: 1.28 %ID/g and 1.37 %ID/g and 1.24 %ID/g and 1.06 %ID/g
Organ distribution, tumor [8]: 4.34 %ID/g
Organ distribution, blood [9]: 3.5 ± 0.2 %ID/g
Organ distribution, muscle [9]: 1.2 ± 0.1 %ID/g
Organ distribution, tumor [9]: 4.7 ± 0.5 %ID/g
Organ distribution, kidney [10]: 2.2 ± 0.2 %ID/g
Organ distribution, liver [10]: 2.7 ± 0.1 %ID/g
Organ distribution, blood [11]: 3.39 %ID/g and 3.70 %ID/g and 2.92 %ID/g and 3.99 %ID/g
Organ distribution, muscle [11]: 1.33 %ID/g and 1.29 %ID/g and 1.18 %ID/g and 1.01 %ID/g
